Whole data set: some 81,000 sequences, median “one-hybrid fitness for binding parS DNA” near -0.17, cut for the highest 2% near 0.51. The list shows a part of the results.
B1: Caulobacter ParB omega fusion; a variant is named by its letters at X, in order, B8GW30 (parent)
chain: MESVVVGEPGMSEGRRGLGRGLSALLGEVDAAPAQAPGEQLGGSREAPIEILQRNPDQPRRTFREEDLEDLSNSIREKGVLQPILVRPSPDTAGEYQIVAGERAWRAAQRAGLKTVPIMVRELDDLAVLEIGIIENVQRADLNVLEEALSYKVLMEKFERTQENIAQTIGKSXSHVANXMRLLXLPDEVQSYLVSGELTAXHARAIAAAADPVALAKQIIEGGLSVRETEALARKAPNLSAGKSKGGRPPRVKDTDTQALESDLSSVLGLDVSIDHRGSTGTLTITYATLEQLDDLCNRLTRGI

Variants of: B1
Assay: one-hybrid fitness for binding parS DNA (scaled: cognate 1, non-cognate 0); higher = stronger binding
Settings: with parS DNA site
Method in brief: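 Caulobacter ParB libraries with four specificity codons randomised were screened by bacterial one-hybrid selection in the E. coli USO strain, using a HIS3 reporter whose site lies 19 bp from the promoter. Selection ran for 48 hours at 37°C on M9 lacking histidine, with 0.1 mM IPTG and 5 mM 3-AT. Plasmids were Illumina-sequenced before and after selection, three replicate libraries were pooled, and variants with under 10 reads were dropped. Fitness is the log change in each variant's read ratio to wild type, rescaled against the cognate and non-cognate sites.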

Variant | one-hybrid fitness for binding parS DNA
VSIG | ≤ 0.2
SAAE | ≤ 0.2
VIPW | ≤ 0.2
AMHV | ≤ 0.2
RPYS | ≤ 0.2
WRRC | ≤ 0.2
KSAW | ≤ 0.2
GTLT | ≤ 0.2
WRYG | ≤ 0.2
SKSK | ≤ 0.2
VKGM | ≤ 0.2
MCTT | ≤ 0.2
YVGG | ≤ 0.2
NTTY | ≤ 0.2
DHHC | ≤ 0.2
VHHS | ≤ 0.2
RGEW | ≤ 0.2
VKKV | ≤ 0.2
GTPT | ≤ 0.2
ARGA | ≤ 0.2
LYND | ≤ 0.2
GLWS | ≤ 0.2
EHCR | ≤ 0.2
QHCW | ≤ 0.2

Variant | one-hybrid fitness for binding parS DNA
TYEN | ≤ 0.2
RNVM | ≤ 0.2
GGNS | ≤ 0.2
GSGL | ≤ 0.2
PQTK | ≤ 0.2
VAGG | ≤ 0.2
PLER | ≤ 0.2
LMWA | ≤ 0.2
PLWI | ≤ 0.2
QTYM | ≤ 0.2
RCDM | 0.308
ANRI | ≤ 0.2
RESI | ≤ 0.2
QVLL | ≤ 0.2
KMVW | ≤ 0.2
TTHS | ≤ 0.2
RCNE | ≤ 0.2
SSLQ | ≤ 0.2
NVIR | ≤ 0.2
TVKI | ≤ 0.2
CSQW | ≤ 0.2
RSYD | ≤ 0.2
SRES | ≤ 0.2
YPKG | ≤ 0.2

Variant | one-hybrid fitness for binding parS DNA
YPTI | ≤ 0.2
RTAW | 0.243
RIQY | 0.442
EFET | ≤ 0.2
EQYC | ≤ 0.2
RHEN | 0.369
QLGC | ≤ 0.2
RSNL | ≤ 0.2
YLTM | ≤ 0.2
HLQV | ≤ 0.2
TNLS | ≤ 0.2
SYWD | ≤ 0.2
HMAW | ≤ 0.2
WSGG | ≤ 0.2
RLVA | 0.567
DFAM | ≤ 0.2
TCNC | ≤ 0.2
YLAL | ≤ 0.2
RPLS | ≤ 0.2
VSSE | ≤ 0.2
VEDG | ≤ 0.2
YTAC | ≤ 0.2
HVYV | ≤ 0.2
PGRR | ≤ 0.2

Variant | one-hybrid fitness for binding parS DNA
MVHQ | ≤ 0.2
DCRA | ≤ 0.2
AGHR | ≤ 0.2
WSAS | ≤ 0.2
YPIL | ≤ 0.2
LQGG | ≤ 0.2
KFAG | ≤ 0.2
PWAC | ≤ 0.2
WDNS | ≤ 0.2
GPTG | ≤ 0.2
SPWA | ≤ 0.2
CANS | ≤ 0.2
ADFT | ≤ 0.2
ADSC | ≤ 0.2
PASR | ≤ 0.2
MIHS | ≤ 0.2
RVQS | 0.989
FLYK | ≤ 0.2
GREE | ≤ 0.2
HSYK | ≤ 0.2
WTYR | ≤ 0.2
DGYR | ≤ 0.2
KKNY | ≤ 0.2
PWNF | ≤ 0.2

Variant | one-hybrid fitness for binding parS DNA
ARPK | ≤ 0.2
TRIY | ≤ 0.2
HIWM | ≤ 0.2
RHNS | 0.864
TFTP | ≤ 0.2
LRIC | ≤ 0.2
TTRW | ≤ 0.2
RCAW | 0.24
RSAM | 0.304
KMRR | ≤ 0.2
EMKG | ≤ 0.2
APSL | ≤ 0.2
NWYY | ≤ 0.2
QSMC | ≤ 0.2
SDVP | ≤ 0.2
VMAI | ≤ 0.2
ATAL | ≤ 0.2
PTKN | ≤ 0.2
AYCY | ≤ 0.2
HAHT | ≤ 0.2
MVQG | ≤ 0.2
PVHH | ≤ 0.2
QAAP | ≤ 0.2
FPQW | ≤ 0.2

Variant | one-hybrid fitness for binding parS DNA
SCFF | ≤ 0.2
TDHI | ≤ 0.2
CMGA | ≤ 0.2
PVFR | ≤ 0.2
QKGH | ≤ 0.2
DACA | ≤ 0.2
YRTG | ≤ 0.2
PCKN | ≤ 0.2
WWNS | ≤ 0.2
AVNY | ≤ 0.2
GWTT | ≤ 0.2
VSDR | ≤ 0.2
TGSY | ≤ 0.2
LATG | ≤ 0.2
EPKC | ≤ 0.2
INTP | ≤ 0.2
HLRI | ≤ 0.2
GMPP | ≤ 0.2
YRCY | ≤ 0.2
FHAT | ≤ 0.2
PLIV | ≤ 0.2
MHYG | ≤ 0.2
PEVC | ≤ 0.2
QKFH | ≤ 0.2

Variant | one-hybrid fitness for binding parS DNA
RTHQ | ≤ 0.2
HFTS | ≤ 0.2
DRLR | ≤ 0.2
LPYG | ≤ 0.2
NIHG | ≤ 0.2
RMSF | 0.258
ARTY | ≤ 0.2
PPNW | ≤ 0.2
ADCE | ≤ 0.2
LVAC | ≤ 0.2
LNDV | ≤ 0.2
FTNL | ≤ 0.2
CEPG | ≤ 0.2
TDAC | ≤ 0.2
LVSN | ≤ 0.2
SWES | ≤ 0.2
SGNR | ≤ 0.2
NYSI | ≤ 0.2
FVRS | ≤ 0.2
SEYS | ≤ 0.2
QYHA | ≤ 0.2
RPFL | ≤ 0.2
AKIF | ≤ 0.2
CNRY | ≤ 0.2

Variant | one-hybrid fitness for binding parS DNA
RFWS | 0.836
PAAQ | ≤ 0.2
AIEW | ≤ 0.2
KTYG | ≤ 0.2
VRWR | ≤ 0.2
RMAI | 0.203
ATFP | ≤ 0.2
ASTL | ≤ 0.2
QTYL | ≤ 0.2
GNVV | ≤ 0.2
GDYR | ≤ 0.2
PKAW | ≤ 0.2
RSSY | 0.46
PDHR | ≤ 0.2
AMRG | ≤ 0.2
RLNN | 0.455
HDFC | ≤ 0.2
RGFP | ≤ 0.2
AKSQ | ≤ 0.2
SWTN | ≤ 0.2
SKNG | ≤ 0.2
HTAD | ≤ 0.2
YIRY | ≤ 0.2
WGHH | ≤ 0.2

Variant | one-hybrid fitness for binding parS DNA
RCAV | ≤ 0.2
TLCG | ≤ 0.2
AVNL | ≤ 0.2
HRLW | ≤ 0.2
GHKR | ≤ 0.2
FPNG | ≤ 0.2
NSCH | ≤ 0.2
YRWN | ≤ 0.2
KTPC | ≤ 0.2
MHDG | ≤ 0.2
LQSY | ≤ 0.2
KVRG | ≤ 0.2
MEHS | ≤ 0.2
ATNM | ≤ 0.2
AVIY | ≤ 0.2
RHNL | ≤ 0.2
RWGL | ≤ 0.2
AYCC | ≤ 0.2
RAMA | 0.565
HTEC | ≤ 0.2
PHTL | ≤ 0.2
ALQH | ≤ 0.2
FKSN | ≤ 0.2
RLAN | 0.442

Variant | one-hybrid fitness for binding parS DNA
QPHD | ≤ 0.2
ETKQ | ≤ 0.2
NKWG | ≤ 0.2
YMGR | ≤ 0.2
QNLW | ≤ 0.2
IETK | ≤ 0.2
KEWR | ≤ 0.2
KDHS | ≤ 0.2
AMIS | ≤ 0.2
DITW | ≤ 0.2
HRKR | ≤ 0.2
QSEP | ≤ 0.2
LYTT | ≤ 0.2
LWWE | ≤ 0.2
PPKK | ≤ 0.2
ERHG | ≤ 0.2
LGKF | ≤ 0.2
CMVC | ≤ 0.2
MLHE | ≤ 0.2
RDVM | ≤ 0.2
MEST | ≤ 0.2
HLPC | ≤ 0.2
VTNY | ≤ 0.2
IKNR | ≤ 0.2

Variant | one-hybrid fitness for binding parS DNA
RHNR | ≤ 0.2
TTAM | ≤ 0.2
ISVC | ≤ 0.2
PDLH | ≤ 0.2
PHSW | ≤ 0.2
HSPI | ≤ 0.2
LKVE | ≤ 0.2
MATW | ≤ 0.2
AKNV | ≤ 0.2
HTYP | ≤ 0.2
SNVR | ≤ 0.2
SRPY | ≤ 0.2
RYLR | ≤ 0.2
RLCL | ≤ 0.2
TFSC | ≤ 0.2
PWKA | ≤ 0.2
IEPM | ≤ 0.2
RFQD | ≤ 0.2
AVWC | ≤ 0.2
LIST | ≤ 0.2
WMIP | ≤ 0.2
HNSG | ≤ 0.2
MYNK | ≤ 0.2
ALFS | ≤ 0.2

Variant | one-hybrid fitness for binding parS DNA
QKCS | ≤ 0.2
YRMC | ≤ 0.2
RNQP | ≤ 0.2
MLSS | ≤ 0.2
QAQM | ≤ 0.2
WMHS | ≤ 0.2
QFHT | ≤ 0.2
RGTH | ≤ 0.2
PAPL | ≤ 0.2
HAYT | ≤ 0.2
PYWG | ≤ 0.2
QLQN | ≤ 0.2
RSLI | ≤ 0.2
FVQI | ≤ 0.2
LPHG | ≤ 0.2
KTSM | ≤ 0.2
GYPM | ≤ 0.2
RWDN | ≤ 0.2
RGYC | 0.527
KIKY | ≤ 0.2
LMLC | ≤ 0.2
PIYT | ≤ 0.2
EGQR | ≤ 0.2
VYNM | ≤ 0.2

Variant | one-hybrid fitness for binding parS DNA
SICL | ≤ 0.2
IQDV | ≤ 0.2
IQSI | ≤ 0.2
YILC | ≤ 0.2
FTYW | ≤ 0.2
AVRK | ≤ 0.2
TYHS | ≤ 0.2
GPAY | ≤ 0.2
LRYC | ≤ 0.2
MRIR | ≤ 0.2
NLTA | ≤ 0.2
LIPK | ≤ 0.2
FVVS | ≤ 0.2
PSYY | ≤ 0.2
SDNS | ≤ 0.2
ACYL | ≤ 0.2
KFFG | ≤ 0.2
RRVK | ≤ 0.2
